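Cells were grown in 96-well plates and exposed to each compound for 48 hours at five concentrations; endpoints were interpolated linearly between bracketing concentrations, or set to the highest concentration if not reached. At the GI50, growth is halved. TGI denotes the concentration required for complete inhibition of growth.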 Peptide text beside a SMILES is read from it. * marks the point of attachment. X33 = O=C(c1ccc(-c2ccc(Cl)cc2Cl)o1)*

The assay concerns NCI-H322M lung. Nature of the assay: NCI-60 cell line screen, 48 h.
Take `CC1(C)O/C(=C\c2ccccc2)C(=O)/C(=C/c2ccccc2)O1`: the TGI is above 100 µM. Same read-out and setting: under `O=C(NCCCCCCNCc1cccc2ccccc12)Nc1cccc2ccccc12` stands above 100 µM; under `CC1=NN2C(=N)/C(=C/c3ccco3)C(=O)N=C2S1`, above 100 µM.

`COc1ccc(/C(Cl)=C(\C=O)c2ccc(F)cc2)cc1OC` yielded a TGI of 54.6 µM.

The compound `C=CCNC(=O)N(CCC)CCCCC(NC(C)=O)C(=O)NCc1ccccc1` (stereo not given) came in with a TGI above 100 µM. With `CCCCC1(CN2CCOCC2)S/C(=N/c2nc(CC(=O)OCC)cs2)NC1=O` (stereo not given), the GI50 was 35.6 µM and the TGI is above 100 µM. As to `CCCCCCCCCCCCCCCCCC(=O)O[C@H](COC(=O)CCCCCCCCCCC)COC(=O)CCCCCCCCCCCCCCC`, the TGI is above 100 µM. On the same count and under the same terms, the same measure for `CC(=O)C1=C(C)NC2C=CC=CN12` (stereo not given): above 100 µM; for `Cc1cn(C(Cc2ccccc2)OCCO)c(=O)[nH]c1=O` (stereo not given): above 100 µM. Take `CC1=NN(C(=O)CC(=O)N(C(=O)c2ccccc2Cl)c2ccc(C)cc2)C(=O)C1N=Nc1ccc([N+](=O)[O-])cc1` (stereo not given): the TGI was above 100 µM. Still for that read-out and setting: the same measure for `OCC1OC(n2cnc3c(Cl)nc(Nc4ccccc4)nc32)CC1O` (stereo not given): above 100 µM. As to `COc1cc2c3c(n(CCCN(C)C)c(=O)c2cc1OC)-c1ccccc1C3=O`, the GI50 is 23.6 µM and the TGI is above 100 µM.

In turn, `N=C(N)SCc1cccc(-c2nc3ccccc3c(=O)o2)c1` gave a TGI above 100 µM.

For `COc1ccc2c(c1)C(C)Cc1c(ncnc1-n1c(C)nc3ccccc31)N2C` (stereo not given), the GI50 is 10.6 µM and the TGI was 27.6 µM. As for `CC1CCC(=O)C(C(=O)CC2CC(=O)NC(=O)C2)C1` (stereo not given), the TGI was above 100 µM.

`Cc1ccc2c(=O)cc(-c3cccs3)[nH]c2n1` showed a TGI above 100 µM.

`C[n+]1cc(C(O)c2ccc3c(c2)OCO3)c2ccccc2c1` (stereo not given) yielded a TGI above 100 µM.

Compound `O=C1CC2C(=O)N(Cc3ccccc3)C1C=C2S(=O)(=O)c1ccccc1` (stereo not given) registered a TGI above 100 µM.

Regarding `CN[C@@H](C)[C@H](NC)c1ccccc1`, the TGI is above 100 µM. The compound `NCCN=C(Nc1ccccc1)Nc1ccccc1` yielded a TGI above 100 µM. On to `Cc1ccc2c(c1)[nH]c1cc(C(F)(F)F)ccc1[p+]2=O` (stereo not given), for which the TGI was above 100 µM. On the same count and under the same terms, the same measure for `N#Cc1c(-c2ccccc2)nc(-c2ccccc2)sc1=S`: above 100 µM; for `CCOC(=O)/C=C(/C(=O)OCC)n1ccc(N)nc1=O`: above 100 µM; for `O=C(O)c1ccc(S(=O)(=O)c2ccccc2[N+](=O)[O-])cc1`: above 10 µM. In turn, `CCCCOC(=O)NC(=O)c1cn(CCCOC(=O)NCCCCCCNC(=O)OCCCn2cc(C(=O)NC(=O)OCCCC)c(=O)[nH]c2=O)c(=O)[nH]c1=O` returned a TGI above 100 µM. The same measure, in the same setting: the same measure for `Cc1cc(C2(O)C=C(C(C)(C)C)C(=O)C(C(C)(C)C)=C2)c(C)cc1C1(O)C=C(C(C)(C)C)C(=O)C(C(C)(C)C)=C1`: above 100 µM. As to `COc1ccc(-c2ccc(/C=N/n3c(C)n[nH]c3=S)o2)c([N+](=O)[O-])c1`, the GI50 is above 100 µM and the TGI is above 100 µM.

As for `Cc1cc(S(=O)(=O)N/N=C(\Sc2cc(Cl)c(C)cc2S(N)(=O)=O)c2ccc(Cl)cc2)c(Cl)cc1Cl`, the GI50 is above 100 µM and the TGI is above 100 µM.

With `C1CCC2C(C1)CCCC2NC1=NCCO1` (stereo not given), the TGI was above 100 µM. Still for that read-out and setting: the same measure for `CCCSc1ccc2[nH]c(/N=C/c3ccco3)cc2c1`: 92.5 µM.

Turning to `Oc1cn(-c2ccc(Cl)cc2)nc1-c1n[nH]c(=S)n1C1CCCCC1`, the GI50 was 0.332 µM and the TGI came out at 42.2 µM. For the compound `CCC(C)C(NC(=O)CNC(=O)C(Cc1ccccc1)NC(=O)C1CCCN1C(=O)c1ccc(-c2ccc(Cl)cc2Cl)o1)C(=O)OC` (stereo not given) (X33-PFGI-OMe; configuration not given here), the TGI is above 100 µM. The same measure, in the same setting: the same measure for `COC(=O)CCC(=O)CC1CC(=O)C2CCCN12` (stereo not given): above 100 µM. As to `CC(C)S(=O)(=O)c1ccccc1Nc1nc(Nc2cccc(NC(=O)CN)c2)ncc1Cl`, the GI50 is 1.14 µM and the TGI turned out to be 9.92 µM. As for `Cc1cc2c(cc1Cl)SC(=Nc1ccc(Cl)cc1)N(S(=O)(=O)c1ccccc1)S2(=O)=O`, the GI50 is 18.5 µM and the TGI is 61.4 µM. With `C[C@H](N)C(=O)Nc1ccc(-c2nc3ccccc3s2)cc1`, the TGI was 75.5 µM. `Cc1cc(C)[n+](CCOc2ccc(/C(=C(/Cl)c3ccccc3)c3ccccc3)cc2)c(C)c1`: the TGI amounted to 13.1 µM. The same measure, in the same setting: under `CC(C)(C=O)CC(C#N)/C(=N\NC(N)=O)C(=O)Nc1ccccc1C(N)=O` (stereo not given) stands above 100 µM. In the case of `O=C(COc1ccc(/C=C2\CSc3ccccc3C2=O)cc1)Nc1nccs1`, the GI50 is 19.9 µM and the TGI was 41.4 µM. In turn, `O=C1c2ccccc2C(=O)N1Cc1ccccc1-c1c2nc(c(-c3ccccc3CN3C(=O)c4ccccc4C3=O)c3ccc([nH]3)c(-c3ccccc3CN3C(=O)c4ccccc4C3=O)c3nc(c(-c4ccccc4CN4C(=O)c5ccccc5C4=O)c4ccc1[nH]4)C=C3)C=C2` returned a TGI above 100 µM. The same measure, in the same setting: the same measure for `CN(C)c1ccc(C2SCC(=O)N2NS(=O)(=O)c2cccc(C(=O)O)c2)cc1` (stereo not given): above 100 µM; for `COc1ccc2nc3ccccc3c(NCCCCCCN(CCCl)CCCl)c2c1`: 1.4 µM; for `O=c1nc2c(c(-c3ccccc3Cl)[nH]1)COC/C2=C\c1ccccc1Cl`: above 100 µM.

Regarding `COc1ccc2ncn(-c3cc(O[C@H](C)c4ccccc4Cl)c(C(N)=O)s3)c2c1`, the GI50 was 0.0326 µM and the TGI is above 25 µM. Regarding `COC(=O)C1=C(C(=O)OC)SC2(S1)C1=C(CCCC1)SC(C(=O)OC)=C2C(=O)OC`, the TGI turned out to be 8.92 µM. For the compound `Nc1ccc(N=Nc2ccccc2)cc1`, the TGI was above 100 µM. On the same count and under the same terms, the same measure for `c1cc2nnnn2nc1N1CCCC1`: above 100 µM. Same read-out and setting: under `Nc1nc(CCl)nc(Nc2ccccc2)n1` stands above 100 µM; under `CC(=O)N1N=C(c2ccc3ccccc3c2O)CC1C(=O)c1ccco1` (stereo not given), above 100 µM.

As to `C=C1C[C@]23CCC4C(C)(C)C(=O)CC[C@]4(C)C2C[C@H]1C(O)C3=O` (stereo not given in full), the TGI is above 75 µM. Same read-out and setting: the same measure for `COC(=O)/C(C)=C/[N+](=O)[O-]`: 34.6 µM. In the case of `CCOC(=O)CNC(=O)c1ccccc1Nc1ccnc(C(F)(F)F)c1`, the GI50 is 28.5 µM and the TGI was 98.9 µM.

As to `Nn1c(CCCCCCCCc2nnc(COc3ccc(Cl)cc3)n2N)nnc1COc1ccc(Cl)cc1`, the TGI was above 100 µM. In turn, `Cc1ccc(-c2cc(N)n(-c3nc4c(c(=O)n(C)c(=O)n4C)n3C)n2)cc1` came in with a TGI above 100 µM. Still for that read-out and setting: the same measure for `COc1cc(CNc2ccc(SC)cc2)cc(OC)c1OC`: above 100 µM; for `CCC1(C(=O)OC(C)(C)C)OC12C(C)CCCC2C` (stereo not given): above 100 µM. For `Cc1cc(N/N=C/c2nc(-c3ccc(Br)cc3)oc2C)c2cc(Br)ccc2n1`, the GI50 was 5.53 µM and the TGI was found to be 18.3 µM. As to `CCOC(=N)CC(=O)Nc1cccc(C)c1C`, the TGI is above 100 µM.

On to `N#CC(=NCCO)C1=C(O)c2ccccc2C1=O`, for which the TGI is above 100 µM. On the same count and under the same terms, under `O=c1c2ncn(COCCCl)c2n(-c2ccccc2)c(=S)n1-c1ccccc1` stands above 100 µM; under `COc1cc(C)c2c(c1C)OC(=O)c1c(C)c(Cl)c(O)c(C=O)c1O2`, 84.2 µM.

For `[Au+].[Au+].[Au+].[c-]1nccn1Cc1ccccc1.[c-]1nccn1Cc1ccccc1.[c-]1nccn1Cc1ccccc1`, the GI50 is 17.6 µM and the TGI was 37.5 µM.

The values above are taken from PubChem BioAssay (NCI).
